Measured values as given in publication PMC6919601, “Identification of Plasmodium dipeptidyl aminopeptidase allosteric inhibitors by high throughput screening” (PLoS ONE, 2019).
Screen size: about 110,000 compounds; about 230 (0.21%) showed an effect of 50% or more. The list shows a part of the results.

target: DPAP1 (Plasmodium falciparum, UniProt Q8IIJ9); test: primary screen, percent inhibition; read by cleavage of a fluorogenic dipeptide substrate; higher = more effect of the substance; design: species or system P. falciparum D10 trophozoite lysates; single well
Sequence (Q8IIJ9 whole entry, looked up): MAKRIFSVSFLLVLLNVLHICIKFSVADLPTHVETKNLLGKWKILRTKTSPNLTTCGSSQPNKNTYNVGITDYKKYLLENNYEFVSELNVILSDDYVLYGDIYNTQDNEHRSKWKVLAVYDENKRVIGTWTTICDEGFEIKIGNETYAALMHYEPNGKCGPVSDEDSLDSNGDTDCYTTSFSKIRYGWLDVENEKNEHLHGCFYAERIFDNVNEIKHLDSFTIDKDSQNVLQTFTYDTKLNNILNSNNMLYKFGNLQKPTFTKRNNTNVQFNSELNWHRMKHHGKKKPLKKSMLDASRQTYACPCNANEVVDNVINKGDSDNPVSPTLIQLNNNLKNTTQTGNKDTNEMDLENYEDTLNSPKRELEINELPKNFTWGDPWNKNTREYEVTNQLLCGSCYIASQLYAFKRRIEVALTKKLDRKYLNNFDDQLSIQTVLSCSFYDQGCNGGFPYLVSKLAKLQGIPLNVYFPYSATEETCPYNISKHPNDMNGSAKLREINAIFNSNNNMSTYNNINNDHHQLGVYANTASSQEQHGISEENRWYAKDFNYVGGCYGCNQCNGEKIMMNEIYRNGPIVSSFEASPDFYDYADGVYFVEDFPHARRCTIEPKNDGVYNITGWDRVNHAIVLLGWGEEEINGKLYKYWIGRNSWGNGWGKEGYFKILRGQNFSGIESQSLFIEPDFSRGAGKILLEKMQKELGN
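Note: 30 min substrate incubation versus DMSO and 10 µM JCP410 controls.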

In order of rising “% Inhibition @ 10 uM” value:
1. CCN(CC)C(=O)Cn1ncc2c3ccccc3n(C)c2c1=O  -7.36%
2. CCOC(=O)c1ccc(CN(CC)CC)cc1  -5.51%
3. COc1ccc(C(=O)c2ccc(OC)c(N)c2)cc1N  -4.58%
4. CCc1cccc(C)c1NC(=O)COc1ccc(Cl)cc1Cl  -3.67%
5. CCOC(=O)N1CCN(C(=O)CSc2nnc(CNC(=O)c3cccs3)o2)CC1  -3.62%
6. CCn1cc(/C=C(\NC(=O)c2ccccc2)C(=O)N2CCOCC2)c2ccccc21  -3.52%
7. Cc1ccc(-c2cc(C(=O)Nc3ccc(S(N)(=O)=O)cc3)c3ccccc3n2)cc1C  -3.45%
8. O=C(c1cc(=O)c2cc(Cl)ccc2o1)N(Cc1ccccc1)Cc1ccco1  -3.24%
9. Cc1sc(NC(=O)CCCC(=O)O)nc1-c1ccccc1  -2.87%
10. CC1CN(C(=O)Cn2cc(S(=O)(=O)Cc3ccc(C(F)(F)F)cc3)c3ccccc32)CC(C)O1 (stereo not drawn)  -2.55%
11. COc1ccc(NC(=O)c2ccccc2F)cc1OC  -2.36%
12. O=C(Nc1ccccc1C(F)(F)F)Nc1cccc2ccccc12  -2.18%
13. Cc1nc2sc3c(c2c(=O)o1)CCCCC3  -1.59%
14. CCOCCO/C(O)=C1\C(C)=NC2=C(C(=O)CC(C)(C)C2)C1c1cccc(OC)c1 (stereo not drawn)  -1.03%
15. CCN(CC)CC/N=c1\c(N)c(O)oc2ccccc12  -0.687%
16. COc1cc2nc(N3CCNCC3)nc(N)c2cc1OC  -0.424%
17. CCc1cc2c(=O)c(-c3ccc4c(c3)OCCCO4)c(C)oc2cc1OCC#N  0.528%
18. C#CCSc1nc2c(c(=O)n1-c1ccc(C)cc1)C1(CCCC1)Cc1ccccc1-2  1.27%
19. CCSCCOC(=O)C1=C(C)NC(=O)CC1c1ccc(Cl)cc1Cl (stereo not drawn)  2.54%
20. Cc1ccc(S(=O)(=O)c2nc(S(C)(=O)=O)sc2NCc2ccc3c(c2)OCO3)cc1  2.76%
21. CCCN(CCC)C(=O)Cn1c(=O)n(Cc2ccccc2)c(=O)c2c3c(sc21)CN(C(C)=O)CC3  3.32%
22. CC12CCC(C(=O)O)(c3nc4cc(Cl)c(Cl)cc4nc31)C2(C)C (stereo not drawn)  3.67%
23. CCCCSc1nc2ccc(N3C(=O)c4ccccc4C3=O)cc2s1  3.83%
24. CCOC(=O)N1CCN(c2nc(-c3ccc(OC)cc3)cc(C(F)(F)F)n2)CC1  3.97%
25. COc1ccc2nc(NC(=O)CN(C)S(=O)(=O)c3ccc4nc(C)sc4c3)sc2c1  4.33%
26. COc1ccccc1OCCn1cc(C(=O)O)c2ccccc21  5.5%
27. Cc1cc(/C=C2/SC(=O)NC2=O)c(C)n1-c1ccc(Br)cc1  19.3%
